Source: the supplement of paper PMC3334620
The full ranking holds about 33,000 sequences; the median of “E-score (-0.5 to 0.5)” is about -0.021, and the highest 2% start at about 0.32. Some of the results follow.

Target: T1, Zap1 (UniProt P47043)
T1 sequence: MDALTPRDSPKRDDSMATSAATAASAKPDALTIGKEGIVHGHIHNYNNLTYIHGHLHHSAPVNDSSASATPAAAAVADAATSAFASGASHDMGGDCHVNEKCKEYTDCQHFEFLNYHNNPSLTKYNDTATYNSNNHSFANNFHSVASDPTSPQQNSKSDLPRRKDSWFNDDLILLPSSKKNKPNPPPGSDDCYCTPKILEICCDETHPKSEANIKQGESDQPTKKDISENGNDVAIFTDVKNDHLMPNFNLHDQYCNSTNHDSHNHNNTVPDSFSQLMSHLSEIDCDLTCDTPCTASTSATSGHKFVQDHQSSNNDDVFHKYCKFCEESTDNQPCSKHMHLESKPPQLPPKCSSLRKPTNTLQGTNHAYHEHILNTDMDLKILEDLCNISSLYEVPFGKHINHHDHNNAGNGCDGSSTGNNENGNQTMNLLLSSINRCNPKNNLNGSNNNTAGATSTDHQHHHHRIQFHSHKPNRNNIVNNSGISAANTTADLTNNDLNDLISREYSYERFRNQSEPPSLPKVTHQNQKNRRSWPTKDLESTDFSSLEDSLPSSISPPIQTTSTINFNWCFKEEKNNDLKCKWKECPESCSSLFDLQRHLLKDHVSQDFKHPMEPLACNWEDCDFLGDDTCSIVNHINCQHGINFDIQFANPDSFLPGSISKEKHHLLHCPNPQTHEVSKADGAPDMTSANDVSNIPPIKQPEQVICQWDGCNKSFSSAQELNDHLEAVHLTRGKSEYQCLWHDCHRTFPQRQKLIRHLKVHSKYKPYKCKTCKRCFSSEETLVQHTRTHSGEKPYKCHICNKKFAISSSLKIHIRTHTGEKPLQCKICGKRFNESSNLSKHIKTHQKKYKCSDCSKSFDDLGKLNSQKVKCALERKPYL
Assay: PBM E-score (8-mer binding enrichment) (E-score (-0.5 to 0.5)); higher = stronger / more preferred TF binding; most listed sequences are background and not binding sites
Conditions: protein concentration: 200 nM; construct: GST-full length
Summary of the method: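 The E-score, a modified Wilcoxon-Mann-Whitney statistic, was computed by the Universal PBM Analysis Suite for every ungapped eight-base word pooled with its reverse complement. Scans behind it were normalised with masliner after bound GST-tagged yeast transcription factors were detected with fluorescent anti-GST. The proteins, at about 100-200 nM, had been applied to universal all-10-mer Agilent arrays made double-stranded by primer extension.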

Sequence	PBM E-score
CAGGTGCC	-0.163
ACGCACGG	-0.123
ATTCGGTA	0.203
GTCGATAA	-0.0534
AGATGGAC	-0.0642
ACTGAGCA	-0.177
AAAGAAGT	-0.028
ATGGGGGA	-0.259
CAACTTGA	0.134
TCATCACA	-0.0219
AACGAATT	0.121
GAAGATTA	0.0698
CCAACAAA	0.224
TAGGTGCA	-0.191
ACACAGCT	-0.124
AAACCTAA	0.159
GAAGAACA	0.101
ACAGGAAG	-0.112
CCCAGCAA	0.0561
GCTAACCC	0.32
CGAGAGGA	-0.0403
ATAGCTAG	-0.061
GTCAAGGA	-0.109
CATTGCAG	0.041
CGACGGTA	0.147

Sequence	PBM E-score
GATTTCTA	0.00455
AGTTGACC	0.123
CCAGAGAC	-0.175
ACGAATGG	0.0825
AATGCGCT	-0.055
CTTTGGGC	-0.0895
CAACGCTA	-0.148
CGCAACCA	0.283
GACCGTGA	0.199
AAAGCAAA	0.116
CACCCATC	0.0232
CTGTGGCC	-0.153
AGCTGTTC	-0.11
CAATTAAG	0.142
AAACAGGT	0.135
AATCAGGT	0.189
GAGCCAAA	0.0309
TCAACTCA	-0.052
AAGTTCAA	-0.0253
AATCTCCC	-0.167
AGCTACCA	0.0544
GATTTGCC	-0.16
CTATAAAG	-0.0295
CCCTTTGA	-0.0249
ATATAACC	0.456

Sequence	PBM E-score
GCCGCACA	-0.122
GCAGCCCA	-0.303
AAACCTAG	0.051
AAAATATA	0.233
AGTTTGGA	0.0365
ATGCAAGG	-0.18
GCCAGGAC	-0.149
TAGGGACA	0.0791
AAGAAGGG	0.0894
GGAAGAAA	0.00274
CCATATAA	0.175
AGCGTGCG	-0.101
GTAGAAGA	-0.0718
CATTTAGC	0.00568
AATACGAA	0.0771
CCGCCCTA	-0.222
AACAGCTA	-0.123
GAAGAGAC	-0.152
CACAACCC	0.414
GCAAAGGC	-0.323
CACATAAG	-0.146
AGTATACT	0.0859
CACCGGGA	-0.1
ATTAGAAA	0.0663
ACGCCGAT	-0.186

Sequence	PBM E-score
GAGCGTAA	-0.0937
AGCCAACT	-0.159
AACTGATT	0.00683
GGAAGACC	0.0824
AGCGTAAC	0.199
GACGAGTC	-0.169
CCGTTACG	-0.111
AAAGTTGG	0.00901
GGTGCCAC	-0.0258
TAATGATA	0.157
AAAATGAT	0.181
ACGCTCTA	-0.245
CTTTCCCA	0.0569
CGCTGCGA	-0.0742
AGCGCAAG	-0.108
AGTGGGTC	0.0712
CTCCGTCA	-0.0988
AGGCACCT	-0.0554
AGGTTGCC	0.088
AATCTGCT	-0.108
CTCAATCA	0.0704
CCTGGCCC	-0.0746
CTAAGTAA	-0.0123
ACGTAACG	-0.248
CCTGCCAC	-0.114

Sequence	PBM E-score
TCCGACAA	-0.0579
TCAAAACA	0.091
CTTTTCGC	0.124
AATTTGTC	-0.0308
ATGCTCTA	-0.192
CGGGTGAG	-0.28
TATAAGAA	0.0502
GAATGAAA	0.112
CTTATAAG	-0.0614
CGGTGTCA	-0.00368
ACTAGATG	-0.0116
AAAGCTCC	-0.205
AACACTCC	-0.112
CCCCGGCG	-0.277
ACCCGCTG	0.0639
AACGGGTG	0.0873
CTCCGACC	-0.179
CAACTCCG	-0.123
AGCTAAGC	-0.0524
CTCTTGCC	-0.141
AACGTAGA	-0.0363
ATCCGCAA	0.0226
TCACTCAA	-0.0396
AAACGGGC	-0.141
GCTTACCC	-0.0481

Sequence	PBM E-score
AAGTATGC	-0.251
ATATTTCG	0.202
ATGCCGTC	-0.169
GCTTAATA	0.0843
ATGGTCTG	0.00818
CATTCGAA	0.0609
ATTCGTTG	-0.00472
GATGGGAC	-0.22
GATGTAAC	0.0633
CGGGAGCC	-0.273
CCTGTCCG	-0.00022
CCTGCTTC	-0.275
CATATGCA	-0.129
GTGCAAAC	-0.106
GGAAGGCC	-0.0868
ACCCAAAG	0.271
GTGTAGCA	-0.201
AGCTTAGA	-0.0413
AGGTGATA	0.0812
CGTCAACA	-0.0717
CAAGAGTG	0.0351
AGCTTACT	-0.0542
TACGAAGA	-0.129
AAGGCAGC	-0.224
ACATATTG	0.00055

Sequence	PBM E-score
CACCCGGG	0.129
CCAGAAAG	0.0214
CAGCAACA	0.0517
ATCAATCG	0.0405
CCGGGCAC	-0.145
AGGCACCC	-0.0486
CGATGGTC	-0.0594
CCTTGTAG	0.0628
ATTCGGAG	-0.00596
CATAATGA	0.0451
GGGCCCGA	-0.064
GAAGTCAC	-0.296
CTCTCAAG	-0.137
ATTGTGCA	0.0088
TATTTACA	0.0342
CTCCCCCC	-0.372
ATCGACTG	-0.183
AGCTCTTC	-0.123
AAGACAAT	-0.0607
CCTTCTAC	-0.0634
AATGTACG	-0.0399
AGTATAGA	0.0656
ACAGTTCC	0.0671
GTGCTTCA	0.0767
CGCGGCCG	0.065

Sequence	PBM E-score
ACGCCCCA	-0.0338
CTTCTTGC	-0.0598
GGGAAGCA	-0.19
ACACTGGC	-0.0599
CGCCAGCC	-0.136
CGGCGGAC	0.0131
CGTTCCAG	-0.114
TACAGAGA	-0.152
CCAGAGAA	-0.0696
GCAACTGC	-0.207
ACTTGGGG	0.0677
AATGCCCA	-0.0715
GCCCATTA	-0.0354
ATCTCGGC	0.0552
GACAAACC	0.124
CAAAAAAC	0.277
ACAATAAG	0.114
GATCCACA	-0.117
TGCCGGAA	0.0388
AAATTCCG	0.0247
GCTGTTTA	0.104
ACACTATC	-0.0374
GACGACTA	-0.19
TCACACCA	0.0411
CAGAATGC	-0.126

Sequence	PBM E-score
CCTCTCCA	-0.209
AGCCGGTC	-0.176
GCCCACGC	-0.229
CGTCTTCA	-0.126
ACGGGTGA	-0.11
CATAATTC	0.0244
ACGAGTCA	-0.0811
AAATGTAC	0.147
AGTGATCC	-0.0223
CGAAGAAA	-0.0368
TAAACTAA	0.239
CCGGGAGA	0.0106
CCCCAGTA	-0.0431
CAATTTAC	0.164
GTCTTAAC	0.0858
ATAGGCTC	-0.182
CCAAGAGC	-0.0126
CCGAAACG	0.0174
CGTAGTGC	-0.209
